Measurements as given in publication PMC6212790.
This is one part of the list. At the low end of the ranking the order means little.
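Also: rank score from −0.5 (least bound) to 0.5 (best bound).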

Each sequence was assayed against T1, GST-Rok (full length) (UniProt O34857) (assay: protein binding microarray). Conditions: Rok is a gene silencer of Bacillus subtilis; high values mean tight binding; most listed sequences are background and not binding sites; double strand, one strand shown.
T1 sequence: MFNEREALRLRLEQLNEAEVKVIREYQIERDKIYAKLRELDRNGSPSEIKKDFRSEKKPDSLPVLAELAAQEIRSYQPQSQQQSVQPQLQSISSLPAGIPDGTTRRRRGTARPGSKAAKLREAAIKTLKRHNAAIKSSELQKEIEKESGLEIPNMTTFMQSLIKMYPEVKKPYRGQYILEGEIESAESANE
For CAGGTCCG, the binding signal was -0.16 E-score.
In the case of GCGTAGAA, the binding signal is reported as 0.144 E-score.
Sequence TTAACGAA has a binding signal of 0.272 E-score.
Sequence CCTACAAC has a binding signal of 0.207 E-score.
ATGATAAT gave a binding signal of 0.286 E-score.
CAGAATCA was tested, and the binding signal was 0.0922 E-score.
For CAAACATC, the binding signal was -0.0255 E-score.
In the case of CTATAGCC, the binding signal is reported as -0.00463 E-score.
In the case of TATTCAGA, the binding signal is reported as -0.096 E-score.
For CCGCCCAA, the binding signal was -0.0841 E-score.
CTGAACCA was tested, and the binding signal was -0.156 E-score.
CCGCGATA was tested, and the binding signal was 0.183 E-score.
For GCCAGAGC, the binding signal was -0.23 E-score.
For AACATGGA, the binding signal was 0.113 E-score.
Work on AATTGTAC yielded a binding signal of 0.341 E-score.
Sequence AAGTCAGA has a binding signal of 0.0934 E-score.
With CTTTAGAC the binding signal was 0.0252 E-score.
In the case of CCCTCCGA, the binding signal is reported as -0.323 E-score.
In the case of ACTAGTTG, the binding signal is reported as 0.313 E-score.
ATCAAGTA showed a binding signal of -0.0272 E-score.
AACCCGGT showed a binding signal of -0.125 E-score.
With AGAAACTG the binding signal was 0.12 E-score.
In the case of AAGCCAGG, the binding signal is reported as -0.224 E-score.
AATAGGAA gave a binding signal of -0.0404 E-score.
Work on ATTATTCG yielded a binding signal of 0.208 E-score.
Work on CCAGCTCC yielded a binding signal of -0.289 E-score.
In the case of AACCACAC, the binding signal is reported as 0.158 E-score.
Work on GGCTTGGA yielded a binding signal of -0.396 E-score.
Work on GGGGATTA yielded a binding signal of -0.193 E-score.
ACCGATCA was tested, and the binding signal was 0.0479 E-score.
TCCTTCAA showed a binding signal of -0.0819 E-score.
Work on ACGCGCCG yielded a binding signal of -0.208 E-score.
CACATACG gave a binding signal of 0.0188 E-score.
GCATGCGC was tested, and the binding signal was -0.207 E-score.
Work on CTTCGCAC yielded a binding signal of -0.121 E-score.
For CGTATATC, the binding signal was 0.196 E-score.
ATGGCCGG showed a binding signal of -0.197 E-score.
Work on CACGTCCC yielded a binding signal of -0.192 E-score.
For ACTGATAC, the binding signal was 0.229 E-score.
In the case of CCCTAAAC, the binding signal is reported as -0.103 E-score.
In the case of CAACGCAA, the binding signal is reported as 0.146 E-score.
ACTTAGGA showed a binding signal of 0.0169 E-score.
Work on ATAGACCA yielded a binding signal of 0.0733 E-score.
In the case of AGAGTCGC, the binding signal is reported as -0.337 E-score.
ATCCCGTC showed a binding signal of -0.236 E-score.
For GCACGATA, the binding signal was 0.0459 E-score.
AAGGGGTA was tested, and the binding signal was -0.0589 E-score.
ACACCTTA showed a binding signal of 0.0501 E-score.
In the case of AGCCGAAG, the binding signal is reported as -0.166 E-score.
In the case of CAAGAATG, the binding signal is reported as -0.116 E-score.
Sequence AACAATCA has a binding signal of 0.0905 E-score.
With CATACATC the binding signal was 0.158 E-score.
CGGCCTAC showed a binding signal of -0.189 E-score.
For GCTTAACA, the binding signal was 0.0509 E-score.
With CACTTCTC the binding signal was 0.0204 E-score.
GTGATACA was tested, and the binding signal was 0.221 E-score.
In the case of ACGGAGTC, the binding signal is reported as -0.19 E-score.
With ATGAACAG the binding signal was 0.112 E-score.
In the case of ACAGAGAC, the binding signal is reported as -0.158 E-score.
With AAAGTGGA the binding signal was -0.07 E-score.
CCTCGCTC was tested, and the binding signal was -0.0993 E-score.
Work on CGACGAAA yielded a binding signal of -0.0866 E-score.
CCGTCCTA was tested, and the binding signal was -0.0489 E-score.
CGCATCCG gave a binding signal of -0.187 E-score.
Work on AGGTAAAT yielded a binding signal of 0.317 E-score.
CCCACAGA was tested, and the binding signal was 0.0146 E-score.
Sequence TACACAGA has a binding signal of 0.27 E-score.
For CTGCTGTA, the binding signal was 0.158 E-score.
CTTCGAGC showed a binding signal of -0.254 E-score.
In the case of AGAGTTCA, the binding signal is reported as -0.112 E-score.
Sequence ACCTCATG has a binding signal of -0.12 E-score.
Work on TAATTTGA yielded a binding signal of 0.229 E-score.
ATTCTGAC was tested, and the binding signal was -0.0998 E-score.
GGGCTCAA was tested, and the binding signal was -0.377 E-score.
For AGATCTCA, the binding signal was 0.141 E-score.
Work on AACTAGAA yielded a binding signal of 0.395 E-score.
CCACAACA gave a binding signal of 0.0336 E-score.
For CGGATTTC, the binding signal was -0.0204 E-score.
GCGGACCA showed a binding signal of -0.127 E-score.
With ACCCGCGG the binding signal was -0.211 E-score.
Work on GGGAAAGA yielded a binding signal of -0.206 E-score.
ATAGTAAC gave a binding signal of 0.366 E-score.
CGACCGAA showed a binding signal of -0.161 E-score.
ACAACGGT gave a binding signal of -0.218 E-score.
In the case of CGATTTGC, the binding signal is reported as 0.0234 E-score.
Sequence AAGAGCAA has a binding signal of -0.265 E-score.
With ACACAGCC the binding signal was -0.0987 E-score.
In the case of CTGATACC, the binding signal is reported as 0.135 E-score.
In the case of CCTATTTA, the binding signal is reported as 0.276 E-score.
In the case of GAGTAGTA, the binding signal is reported as 0.311 E-score.
ACTACCTC gave a binding signal of 0.242 E-score.
Work on AGGACGAC yielded a binding signal of -0.139 E-score.
ATACGTTC gave a binding signal of 0.136 E-score.
In the case of AATTAGTG, the binding signal is reported as 0.322 E-score.
For AATAAAAC, the binding signal was 0.0879 E-score.
GGAGCGCA gave a binding signal of -0.294 E-score.
In the case of GTCCTAAC, the binding signal is reported as -0.0146 E-score.
CGACGACC gave a binding signal of -0.199 E-score.
GAGCAATC was tested, and the binding signal was -0.049 E-score.
In the case of TATAGTCA, the binding signal is reported as 0.159 E-score.
Work on AAGGCCAC yielded a binding signal of -0.294 E-score.
Work on ACTAGTCG yielded a binding signal of 0.292 E-score.
In the case of CAAAAAGC, the binding signal is reported as -0.279 E-score.
Sequence ATAGGTCC has a binding signal of 0.123 E-score.
For CCGTACGG, the binding signal was -0.148 E-score.
For AGACTACT, the binding signal was 0.209 E-score.
For CTGTGTTA, the binding signal was -0.0392 E-score.
CCGTTCAC showed a binding signal of -0.099 E-score.
Sequence CTCCCGAA has a binding signal of -0.224 E-score.
Work on TACCGTGA yielded a binding signal of 0.274 E-score.
TAAGTAAA was tested, and the binding signal was 0.283 E-score.
For TAGTCCGA, the binding signal was 0.0277 E-score.
CCGGAACA was tested, and the binding signal was -0.177 E-score.
TATTTAAA gave a binding signal of 0.216 E-score.
ACTTGAAG was tested, and the binding signal was -0.0519 E-score.
ACTTGTCA showed a binding signal of 0.15 E-score.
CATCAACG gave a binding signal of 0.0646 E-score.
Sequence AGGTGTTA has a binding signal of 0.146 E-score.
GAACAACC was tested, and the binding signal was -0.0785 E-score.
CAGTGTAC showed a binding signal of 0.00685 E-score.
With CTGGCTGC the binding signal was -0.185 E-score.
For GGTTGAAA, the binding signal was -0.00635 E-score.
With AGGATTAT the binding signal was -0.0493 E-score.
Work on GTCAACAA yielded a binding signal of 0.0786 E-score.
GATGTCAC gave a binding signal of -0.0299 E-score.
GCAACGGA was tested, and the binding signal was -0.00674 E-score.
AGGGACAT showed a binding signal of -0.276 E-score.
For AGGTCGCC, the binding signal was -0.324 E-score.
Work on AGTTTGTA yielded a binding signal of 0.391 E-score.
With ATTGCTTA the binding signal was 0.215 E-score.
In the case of GACCTTCA, the binding signal is reported as -0.123 E-score.
In the case of GCCGGTCC, the binding signal is reported as -0.305 E-score.
ATAACTCC gave a binding signal of 0.0385 E-score.
With GACTATGA the binding signal was 0.0759 E-score.
With CACTCGCA the binding signal was -0.137 E-score.
For CTGGCAAA, the binding signal was -0.152 E-score.
ACCCCAGT was tested, and the binding signal was -0.265 E-score.
For CCTGGTAG, the binding signal was 0.162 E-score.
CGCACTCA was tested, and the binding signal was -0.0239 E-score.
AACCATCT was tested, and the binding signal was 0.0695 E-score.
For GCTGTTAC, the binding signal was 0.0614 E-score.
In the case of AGACCACC, the binding signal is reported as -0.235 E-score.
Sequence GTTCGAAC has a binding signal of 0.112 E-score.
CGTTCCTA showed a binding signal of -0.184 E-score.
AGGAGGAA gave a binding signal of -0.159 E-score.
With GACTCAAA the binding signal was -0.227 E-score.
Work on AAGGGGCC yielded a binding signal of -0.402 E-score.
CATAGTCG showed a binding signal of 0.0771 E-score.
AGCCTGGA was tested, and the binding signal was -0.235 E-score.
CTCTCGAA gave a binding signal of 0.161 E-score.
Work on TACGTGAA yielded a binding signal of 0.0262 E-score.
Work on GTAATAAA yielded a binding signal of 0.256 E-score.
Sequence ATAGCCGA has a binding signal of 0.0795 E-score.
CGTGATGA was tested, and the binding signal was -0.14 E-score.
Work on AGGACTAT yielded a binding signal of 0.0648 E-score.
For CGCACCTA, the binding signal was 0.0485 E-score.
CCTCGAAA showed a binding signal of -0.0453 E-score.
Work on TACTCCAA yielded a binding signal of -0.0314 E-score.
CGGCACCC showed a binding signal of -0.399 E-score.
CGAAGGAC was tested, and the binding signal was -0.156 E-score.
Work on CTTGGTTC yielded a binding signal of 0.00681 E-score.
CGTCCGAA showed a binding signal of -0.163 E-score.
CATTTCAA gave a binding signal of 0.129 E-score.
AAGTCACA was tested, and the binding signal was 0.0824 E-score.
In the case of CAACCGAA, the binding signal is reported as 0.0943 E-score.
AATCGATT showed a binding signal of -0.114 E-score.
For GCGATTCA, the binding signal was -0.0567 E-score.
In the case of CGAGGTCC, the binding signal is reported as -0.0704 E-score.
AAATTCTT gave a binding signal of 0.0789 E-score.
Work on CTAGAAGC yielded a binding signal of -0.238 E-score.
With CGGGCATA the binding signal was -0.181 E-score.
In the case of ATTTCTTA, the binding signal is reported as 0.221 E-score.
